Drawing on PubChem BioAssay AID488969 (Vanderbilt High Throughput Screening Facility, 2010), this text covers z-score for 109 compounds.

Structures are written as SMILES. Whole data set: some 110,000 compounds, median “z-score” near -0.1, cut for the highest 2% near 2. The list shows a part of the results. Activity calls are given as the source filed them.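 Rule for the calls: active = z-score in the third read window above 3 or below -3; inactive = the rest.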

The target of the experiment is Metabotropic glutamate receptor 8 (Rattus norvegicus) (UniProt P70579). Nature of the experiment: rat mGluR8 modulators via GIRK flux, primary screen, cell-based, thallium flux, HTS (AID 488969). The note with it: HEK293 rat mGluR8, GIRK (G protein-gated inwardly rectifying potassium channel) thallium flux, FluoZin2; at 10 µM; stronger effect = higher value; submaximal glutamate (EC20) added with thallium.
UniProt P70579, sequence (P70579 whole entry, looked up): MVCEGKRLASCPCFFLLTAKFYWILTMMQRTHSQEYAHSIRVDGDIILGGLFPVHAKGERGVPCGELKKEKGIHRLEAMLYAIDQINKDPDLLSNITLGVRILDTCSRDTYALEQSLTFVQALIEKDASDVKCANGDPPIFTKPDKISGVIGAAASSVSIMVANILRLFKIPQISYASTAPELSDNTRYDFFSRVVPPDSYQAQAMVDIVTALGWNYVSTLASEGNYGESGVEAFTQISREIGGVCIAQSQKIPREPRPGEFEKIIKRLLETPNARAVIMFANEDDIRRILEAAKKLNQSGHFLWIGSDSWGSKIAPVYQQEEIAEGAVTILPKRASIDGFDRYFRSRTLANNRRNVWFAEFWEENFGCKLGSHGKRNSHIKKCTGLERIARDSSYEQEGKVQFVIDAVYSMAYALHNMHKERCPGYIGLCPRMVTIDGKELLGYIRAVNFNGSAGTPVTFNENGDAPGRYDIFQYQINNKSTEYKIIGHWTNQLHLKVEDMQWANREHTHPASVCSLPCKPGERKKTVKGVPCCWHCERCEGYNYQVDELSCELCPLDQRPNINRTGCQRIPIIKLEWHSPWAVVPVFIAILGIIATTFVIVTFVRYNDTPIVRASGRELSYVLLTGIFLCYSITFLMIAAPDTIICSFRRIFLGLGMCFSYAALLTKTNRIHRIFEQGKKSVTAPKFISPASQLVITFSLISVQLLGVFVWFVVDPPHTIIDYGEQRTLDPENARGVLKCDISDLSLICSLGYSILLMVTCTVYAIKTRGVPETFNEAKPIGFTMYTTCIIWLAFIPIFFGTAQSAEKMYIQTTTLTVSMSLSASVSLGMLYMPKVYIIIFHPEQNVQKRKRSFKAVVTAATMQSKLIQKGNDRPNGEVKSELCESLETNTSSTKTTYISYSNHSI
With `CCOC(=O)CSc1nc2cc(C(=O)N3CCC(C(N)=O)CC3)ccc2c(=O)n1-c1ccccc1`, the z-score was 0.0521.
Compound `COc1ccc(OC)c(C2C(C(=O)c3cccs3)=C(O)C(=O)N2CCN(C)C)c1` (centres undefined) came in with a z-score of -0.00245.
With `COc1cccc(CNC(=O)C2CCN(S(=O)(=O)c3c(C)nn(C)c3C)CC2)c1`, the z-score amounted to 0.519.
For `CN(C)c1cccc(C(=O)Nc2ccc3nc4n(c(=O)c3c2)CCCCC4)c1` the value was -0.303.
For `CCCCNC(=S)NNC(=O)c1csc(C)c1` the value was 1.2; for `COc1ccc(OC)c(S(=O)(=O)N(C)CC(=O)N2CCN(c3ccccc3)CC2)c1`, 0.343.
As for `S=C1NCCc2ccc(Cl)cc2C1c1ccccc1Cl` (centres undefined), the z-score came to 0.569.
In turn, `CCOC(=O)N1CCC(NC(=O)C2CCCN(S(=O)(=O)c3ccc4c(c3)oc(=O)n4C)C2)CC1` (centres undefined) showed a z-score of 0.0912.
Regarding `O=C(O)C1CC(=O)N(CCc2ccccc2)C1` (centres undefined), the z-score is -0.225.
On to `CCOC(=O)N1CCN(C(=O)CSc2ncnc3ccccc23)CC1`, for which the z-score was active: 3.04.
For `COc1cccc(-c2nn(-c3ccccc3)cc2C(=O)O)c1` the value was -0.155; for `Cc1ccc(-n2c(C(C)n3nc(C)c([N+](=O)[O-])c3C)n[nH]c2=S)cc1` (centres undefined), -0.127; for `COCCCNS(=O)(=O)c1ccc(SC)cc1`, -0.232.
Turning to `Cc1ccc(C(=O)CSc2ncn[nH]2)cc1`, the z-score is -0.306.
For `CC(=O)NCCn1ccc2ccccc21`, the z-score is -0.0333.
`COc1cc(/C=N/NC(N)=O)ccc1OC(=O)c1ccc(C)cc1` registered a z-score of 0.133.
For `CCOc1ccc(-c2nc(CSc3nncs3)cs2)cc1OC` the value was -1.16; for `Cc1nn(-c2ccccc2)c(Cl)c1C(=O)Nc1ccccc1`, -0.165; for `Nc1ccc2nc(CN3CCOCC3)[nH]c2c1`, -0.0601.
Take `CCOC(=O)c1ccc(NC(=S)N2CCN(S(C)(=O)=O)CC2)cc1`: the z-score is -0.4.
As for `Cc1cc(C2C(C#N)=C(N)OC3=C2C(=O)CC(C)(C)C3)c(C)s1` (centres undefined), the figure is 0.586; as for `O=C(CSCc1ccccc1)Nc1cccc(C(=O)Nc2ccc(C(=O)O)cc2)c1`, -0.231; as for `CC(=O)NC1(C(F)(F)F)NC(=O)N(C2CCCCC2)C1=O` (centres undefined), -0.137.
`O=C(COC(=O)CSc1ccc2ccccc2c1)NC1CCCC1`: the z-score amounted to 0.968.
Compound `COC(=O)c1ccc(NC(=O)c2cn(-c3ccccc3)nc2-c2ccncc2)cc1` had a z-score of -0.00876.
As for `Cc1ccc(C(=O)Nc2ccc3c(c2)ncn3C)cc1`, the z-score was -0.212.
With `Cc1ccc2cc(C)c(Sc3nnnn3-c3ccccc3)nc2c1`, the z-score was -0.239.
For `CN(C)S(=O)(=O)c1cccc(C(=O)NCCc2ccccc2)c1`, the z-score was found to be 0.589.
As for `COc1ccc(C(=O)NC(=S)Nc2ccc(N3CCCC3)cc2)cc1OC`, the figure is 0.0182; as for `CCc1nnc(NC(=O)CSc2nnc(Cc3cccn3C)n2C)s1`, -0.376; as for `CCc1c(C)nc2ncnn2c1N1CCC(C(=O)Nc2ccc(C)cc2)CC1`, 0.133.
As for `Cn1c2ccccc2c(=O)c2c(=O)n(-c3ccccc3)c(C3CCCCC3)nc21`, the figure is -1.31; as for `Cc1ccc(S(=O)(=O)N(CC(=O)N/N=C/c2ccco2)Cc2ccccc2)cc1`, -0.308.
As for `CCOC(=O)C1=C(C)NC(C)=C(C(=O)OCC)C1c1ccc(O)cc1`, the figure is -0.238; as for `O=C1CC(c2ccc(F)cc2)Cc2nc(N3CCN(c4ccccc4)CC3)ncc21` (centres undefined), 0.383.
The compound `CCCCCCC(C)n1cc(C(C)=O)c(=O)[nH]c1=O` (centres undefined) registered a z-score of -0.114.
The compound `Cc1ccc(Sc2nnc(-c3ccccc3)cc2C#N)cc1` registered a z-score of 0.606.
For `C=CCC1c2cccc(C(=O)OC)c2C(=O)N1c1ccccc1` (centres undefined) the value was 0.0143; for `CC1CCN(C(=O)C2CCN(S(=O)(=O)c3cccc4nonc34)CC2)CC1`, -0.0352; for `CC(Oc1ccccc1)C(=O)N1CCCc2ccccc21` (centres undefined), -0.279.
As for `CCNC(=S)N/N=C/c1ccco1`, the figure is 0.768.
`c1ccc(-c2ccc(-c3nc(-c4ccccn4)no3)cc2)cc1` showed a z-score of 1.81.
The compound `Cc1cc(C)nc(SCCS(=O)(=O)Cc2ccccc2)n1` came in with a z-score of 0.17.
As for `CCOc1ccc(NC(=O)C(=O)NCC2CCCN2CC)cc1` (centres undefined), the figure is 0.152; as for `CC(=O)CSc1nsc(SCC(C)=O)c1C#N`, -0.107; as for `Cc1cc(=O)[nH]c2c1c(C)nn2C1CCCC1`, -0.189.
`O=C(Nc1ccc(Cl)cc1)C(c1ccccc1)N(CCO)CCO` (centres undefined) had a z-score of 0.0587.
Compound `CC1(NC(=S)N(CCO)CCO)CCS(=O)(=O)C1` (centres undefined) came in with a z-score of -0.232.
Consider `O=C(COC(=O)Cc1cccc(C(F)(F)F)c1)Nc1ccc2c(c1)OCCO2`, for which the z-score is 0.0552.
`Brc1cc2c(cc1/C=N/Nc1nc(N3CCCC3)nc(N3CCOCC3)n1)OCO2` yielded a z-score of -0.709.
For the compound `Cc1nn(C(=O)N2CCOCC2)c(C)c1CN1C(=O)c2ccccc2C1=O`, the z-score was -0.33.
Regarding `Cc1cccc(-c2nc(CN3CCCC(C(=O)NC4CCC(C)CC4)C3)c(C)o2)c1` (centres undefined), the z-score was 0.765.
As for `N#Cc1nc(-c2ccco2)oc1N1CCC(C(N)=O)CC1`, the figure is -1.21.
As for `CN(c1ccc(C(=O)N2CCCCC2)cc1)S(=O)(=O)c1ccccc1`, the figure is 0.348; as for `COc1cc(CC(=O)Nc2ccc(S(=O)(=O)N(C)C)cc2)cc(OC)c1OC`, 1; as for `CCN1C(=O)/C(=c2\o/c(=C3\C=Cc4ccccc4N3CC)c(=O)n2CC)SC1=S`, -1.42.
`Cc1ccccc1-n1c(=O)[nH]c(=O)c2c(N)c(C(=O)c3ccc(Cl)cc3)sc21`: the z-score was -0.622.
As for `O=C(COC(=O)Cc1ccsc1)Nc1ccc(Cl)c(S(=O)(=O)N2CCOCC2)c1`, the figure is -0.179.
`COC(=O)c1ccc(C2/C(=C(/O)c3ccc(OC(C)C)cc3)C(=O)C(=O)N2c2cc(C)on2)cc1` (centres undefined) gave a z-score of -0.394.
In turn, `O=C(COC(=O)Cc1ccc(F)cc1)Nc1cc(S(=O)(=O)N2CCOCC2)ccc1N1CCCC1` had a z-score of -0.518.
For `c1coc(CN(Cc2ccco2)c2ncnc3c2oc2ccccc23)c1` the value was -2.18.
The compound `Cc1cc(NC(=O)CCCN2C(=O)/C(=C\c3cccs3)SC2=S)no1` showed a z-score of -0.408.
As for `Cc1ccsc1C(=O)N/N=C/c1ccc([N+](=O)[O-])cc1`, the figure is -0.249.
For `COCCCn1c(SCC(=O)N2CCCCC2C)nnc1-c1ccco1` (centres undefined) the value was -0.163.
Take `CCOC(=O)N1CCN(C(=O)C(C)(C)Oc2ccc(Cl)cc2)CC1`: the z-score is -0.244.
As for `Brc1ccccc1OCCOCCOc1cccc2cccnc12`, the figure is -0.443.
For the compound `CCNc1nc(SCCOc2ccc(C)cc2)nc(N(C)C)n1`, the z-score turned out to be 0.5.
Regarding `Cc1ccc(CS/C(Nc2ccccc2C)=C(\C#N)C(N)=O)c(C)c1`, the z-score is -0.0898.
In turn, `CCc1cc[n+](-c2nc3ccccc3nc2C(=C=[N-])C#N)cc1` returned a z-score of -0.0505.
For `CCCCCCCc1nn2c(=O)cc(O)nc2s1` the value was -0.55.
In the case of `CCC/C(O)=N\S(=O)(=O)c1ccc(N=NN(C)C)cc1`, the z-score turned out to be 0.0936.
With `CC(C)n1cc(NC(=O)C2CC(c3cccc(Br)c3)=NO2)cn1` (centres undefined), the z-score is -0.109.
As for `COc1ccc(CC(=O)NCCc2ccc(S(N)(=O)=O)cc2)cc1`, the figure is 0.445; as for `O=C(Nc1ccccc1-c1nnc(SCc2ccccc2Cl)o1)c1ccccc1`, -0.418.
For `COc1ccc(NC(=O)COC(=O)/C=C/c2ccccc2[N+](=O)[O-])cc1` the value was -0.25; for `COc1cc(-c2nnc(CSc3nnc(N)s3)o2)cc(OC)c1OC`, 0.176; for `CC(C)(C)NC(=O)C(c1ccc(O)cc1)N(Cc1ccco1)C(=O)Cn1nnc(-c2cccs2)n1` (centres undefined), -0.709.
As for `CS(=O)(=O)N1CCCC(C(=O)NCCCN2CCC(Cc3ccccc3)CC2)C1` (centres undefined), the figure is -0.0264.
`CC(C)[C@H](NC(=O)c1ccccc1)C(=O)OCC(=O)NCCC1=CCCCC1` returned a z-score of -0.405.
As for `C/C=C(\C)CN1CCN(c2ccc(C)cc2)CC1`, the figure is -0.167.
`CN(C)CCCOC(=O)c1ccccc1Cl` showed a z-score of 0.35.
As for `CCOC(=O)N=S(N)(=O)c1ccc(Cl)cc1` (centres undefined), the figure is -1.25; as for `COc1ccc(S(=O)(=O)N2CCN(c3ccc4nnc(-c5ccccc5)n4n3)CC2)cc1`, -0.253; as for `Cc1ccc(S(=O)(=O)N(CC(=O)N2CCCCCC2)c2ccccc2)cc1`, 0.0938.
As for `COc1ccc(-c2nc(N=Nc3ccc(O)cc3)n[nH]2)cc1`, the figure is -0.152; as for `O=C(NCCc1c[nH]c2ccccc12)Nc1ccccc1`, 0.109.
As for `CCCCn1c(NC(=O)c2ccc(Br)o2)c(S(=O)(=O)c2ccccc2)c2nc3ccccc3nc21`, the figure is -0.332; as for `O=C(COC(=O)[C@H](Cc1ccccc1)NC(=O)c1ccco1)NC(c1ccccc1)c1ccccc1`, -0.454.
In turn, `c1ccc(-c2n[nH]c(-c3ccccc3)c2-c2nc3ccccc3[nH]2)cc1` returned a z-score of -1.66.
Compound `Cc1csc(NC(=O)CSc2nnc(-c3ccccc3)o2)n1` registered a z-score of -0.413.
As for `O=C(C1=NN[C@@H]2C(=O)N(c3ccccc3C(F)(F)F)C(=O)[C@H]12)C(c1ccccc1)c1ccccc1`, the figure is 0.407.
As for `CC(C)CC[n+]1ccn(C2=C([O-])c3ccccc3C(=O)/C2=N\S(=O)(=O)c2ccccc2)c1`, the figure is -0.902.
Compound `Cc1ccc(CSCCNC(=O)CCSc2ccccc2)cc1` had a z-score of -0.202.
For `O=C1NCCCC1C(=O)Nc1ccccc1C(F)(F)F` (centres undefined) the value was -0.0995.
Take `COc1ccc(CNC(=O)Cn2nnc(-c3ccc(NC(=O)C4CCCCC4)cc3)n2)cc1`: the z-score was -0.24.
As for `CCOC(=O)N1CCN(c2c(-c3ccccc3)c3cc(Cl)ccc3[nH]c2=O)CC1`, the figure is -0.212.
`CNC(=O)c1[nH]cnc1C(=O)Nc1cccc(OC)c1` had a z-score of -0.12.
As to `Cc1ccccc1NC(=O)C1CCCN(S(=O)(=O)c2c(C)noc2C)C1` (centres undefined), the z-score was -0.291.
As for `O=C(CCCOc1ccccc1)N1CCN(c2ccc(F)cc2)CC1`, the figure is -0.205; as for `O=[N+]([O-])c1nn(-c2ccc3c(c2)OCCO3)n(O)c1=NCc1ccccc1Cl`, -0.131; as for `O=C(NCCc1nc2ccccc2[nH]1)/C(=C/c1ccco1)NC(=O)c1ccc(Br)cc1`, 1.33.
For `COc1ccc(N=c2sc3ccccc3n2C)cc1`, the z-score was -0.258.
As for `CCOC(=O)c1c(C)n(C(=O)c2ccco2)c(=O)n1C(=O)c1ccco1`, the figure is -1.47; as for `CCOC(=O)c1nnc(-c2ccccc2)nc1Sc1c(Cl)cccc1Cl`, -0.0848.
Take `COC(=O)c1sccc1NC(=O)c1ccc(Br)s1`: the z-score is 0.0824.
`O=C(Nc1ccc(O)c(-c2nc3ccccc3o2)c1)C1(c2ccc(Br)cc2)CCCC1` returned a z-score of -0.297.
Turning to `CC(C)NC(=O)c1ccc(-n2nc(C(F)(F)F)c3c2CCCC3)cc1`, the z-score stood at 0.427.
As for `COCc1nnc(SCC(=O)NCc2ccccc2)n1-c1ccccc1`, the figure is -0.0133; as for `CCOC(=O)c1nnn(-c2nonc2-n2cccc2)c1C`, 0.116.
